# The campaign covered roughly 390,000 compounds. About 1,400 (0.36%) were called active. The inconclusive results got no clear call from the source; some entries with a clear call stand among them for comparison. Calls come from the whole dose curve; as a rule, active = well fitted inhibition curve with a large enough effect; inconclusive = small, poorly fitted or top-dose-only effect; inactive = no such curve, though single readings can be large or run the other way. Potencies beside an inconclusive call are fits to weak or partial responses and may not hold up.
# Biological target: Flap endonuclease 1 (Homo sapiens) (UniProt P39748)
# Chain of UniProt P39748 (P39748 whole entry, looked up): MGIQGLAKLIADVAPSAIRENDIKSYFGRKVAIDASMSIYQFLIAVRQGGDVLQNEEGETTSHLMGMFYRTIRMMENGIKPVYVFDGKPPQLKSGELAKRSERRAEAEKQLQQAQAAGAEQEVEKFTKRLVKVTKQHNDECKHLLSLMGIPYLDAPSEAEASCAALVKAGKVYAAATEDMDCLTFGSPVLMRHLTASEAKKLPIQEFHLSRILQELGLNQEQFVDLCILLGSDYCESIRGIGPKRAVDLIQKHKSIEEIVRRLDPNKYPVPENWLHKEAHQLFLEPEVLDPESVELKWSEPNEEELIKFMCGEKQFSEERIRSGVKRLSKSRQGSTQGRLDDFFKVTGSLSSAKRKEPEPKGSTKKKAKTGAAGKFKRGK
# Test: qHTS Assay for the Inhibitors of Human Flap endonuclease 1 (FEN1). Note: nearly all actives have a fitted effect of over 65% in size.
# Settings: Recombinant FEN1 flap cleavage, fluorescence, 15 min; series mostly up to 114 µM; activity change, negative = inhibition: at the top concentration
# Procedure, shortened: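 Quantitative HTS format: each compound was titrated, incubated with 10 nM nuclease for 15 min at room temperature, then challenged with flap substrate at 50 nM final. Signal change over 15 min gave concentration–effect curves.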
# % is set by controls: 0 for no effect and ±100 for the full control effect; potency is the fitted concentration of half-maximal effect; tags give direction and shape of the fitted curve.
Structure (SMILES),Potency,"activity change, negative = inhibition"
N/N=C/C(=N\Nc1ccc(Cl)cc1)C(=O)c1ccncc1,"inconclusive: 79.4 µM [inhibitor, partial curve, poor fit]",
Cc1ccc(-n2cc(CNCCn3nc(C)cc3C)c(-c3ccc(F)cc3)n2)cc1,"inconclusive: 89.1 µM [inhibitor, partial curve, poor fit]",
CCOC(=O)N1CCC(N2Cc3cccc(C(=O)Nc4ccc(OC)c(OC)c4)c3C2=O)CC1,"inconclusive: 15.8 µM [inhibitor, full curve, poor fit]",
Cc1nn(-c2ccc(F)cc2)c2nc(N)c(C#N)c(-c3cccs3)c12,"inconclusive: 89.1 µM [inhibitor, partial curve, poor fit]",
CC1(C)CC(=O)C2=C(C1)NC(=S)C(C#N)C21CCCCC1 (stereo not drawn),,inactive: 14.8%
COc1ccc2ccccc2c1C1CC(=O)N2CN(Cc3ccco3)CSC2=C1C#N (stereo not drawn),"inconclusive: 15.8 µM [inhibitor, full curve, poor fit]",
COc1ccc(NC(=O)Nc2ccc3c(c2)C(=O)N([C@@H](C)CO)C[C@@H](C)[C@@H](CN(C)CC2CCCCC2)O3)cc1,"inconclusive: 39.8 µM [inhibitor, single point]",
COc1ccccc1CNC(=O)COC(=O)c1ccc([N+](=O)[O-])o1,"inconclusive: 35.5 µM [inhibitor, single point]",
Cc1ccc(C)c(S(=O)(=O)Nc2ccc(O)c3ccccc23)c1,"inconclusive: 17.8 µM [inhibitor, full curve, poor fit]",
O=C(CN1C(=O)COc2ccc(S(=O)(=O)N3CCCCCC3)cc21)N1CCN(c2ccc(F)cc2)CC1,"inconclusive: 89.1 µM [inhibitor, single point]",
COc1ccc(-c2cc3nc(-c4ccccc4)cc(N4CCC(O)CC4)n3n2)cc1,,inactive: 0.228%
Cc1ccc(CCNC(=O)c2cnc3c(-c4ccc(F)cc4)c(C)nn3c2C)cc1,,inactive: 15.5%
COc1ccccc1/C=C1\SC(=S)N(CCC(=O)Nc2ccc(C(=O)O)c(O)c2)C1=O,"inconclusive: 89.1 µM [inhibitor, single point]",
CC(C)Cn1c(N)c(C(=O)COC(=O)c2ccc([N+](=O)[O-])o2)c(=O)n(C)c1=O,"inconclusive: 17.8 µM [inhibitor, full curve, poor fit]",
O=C(C/C=N\OCc1ccc([N+](=O)[O-])cc1)Nc1ccc(F)cc1F,,inactive: 5.87%
COc1ccc(OC)c(C2/C(=C(/O)c3ccccc3)C(=O)C(=O)N2Cc2ccco2)c1 (stereo not drawn),active: 44.7 µM,
COc1cc(SC)ccc1C(=O)NCCc1c[nH]c2ccccc12,"inconclusive: 56.2 µM [inhibitor, partial curve, poor fit]",
CCc1ccc(S(=O)(=O)Nc2cc(SCC(=O)O)c(O)c3ccccc23)cc1,"inconclusive: 4.47 µM [inhibitor, full curve, poor fit]",
CCN(CC)CCOC(=O)c1ccc(N/C=C(/C#N)c2nc(-c3ccc(OC)cc3)cs2)cc1,"inconclusive: 39.8 µM [inhibitor, partial curve]",

Structure (SMILES),Potency,"activity change, negative = inhibition"
COc1ccc(C)cc1NC(=O)c1oc2ccc(S(=O)(=O)N3CCC4(CC3)OCCO4)cc2c1C,,inactive: -13.9%
CCC[n+]1c2ccccc2cc2ccccc21,"inconclusive: 89.1 µM [inhibitor, single point]",
O=C(/C=C/c1ccco1)Nc1cccc2cccnc12,"inconclusive: 56.2 µM [inhibitor, partial curve, poor fit]",
CCOC(=O)c1cc2c(ccn2C)n1Cc1ccc(Cl)cc1,"inconclusive: 17.8 µM [inhibitor, partial curve, poor fit]",
CCc1ccc(NC(=O)CN2C(=O)c3ccccc3Sc3ccc(C(=O)N4CCCC4)cc32)cc1,,inactive: -11.5%
O=C(/C=C/c1ccccc1Cl)OCC(=O)c1ccc[nH]1,"inconclusive: 31.6 µM [inhibitor, single point]",
CCN(CC)CCOC(=O)c1ccc(NC(=O)c2cc3c(s2)-c2ccccc2OC3)cc1,"inconclusive: 44.7 µM [inhibitor, partial curve, poor fit]",
Cc1ccc2c(c1)c1nc3ccccc3nc1n2CCN1CCOCC1,"inconclusive: 39.8 µM [inhibitor, partial curve]",
COc1ccccc1/C=C/c1nc(C#N)c(NCC(C)C)o1,"inconclusive: 44.7 µM [inhibitor, partial curve, poor fit]",
CSc1ccccc1NC(=O)c1noc2c1CCC2,"inconclusive: 89.1 µM [inhibitor, partial curve, poor fit]",
CC(C)Cc1nc(N2CCN(C(=O)c3ccco3)CC2)c(C#N)c2c1CCC2,"inconclusive: 79.4 µM [inhibitor, partial curve, poor fit]",
COc1ccc(-c2nc3c4ccccc4ccn3c2CN2CCOCC2)cc1OC,"inconclusive: 79.4 µM [inhibitor, partial curve, poor fit]",
COc1ccc2c(c1)Cc1sc(NC(=O)c3cccc(C)c3)nc1-2,"inconclusive: 4.47 µM [inhibitor, full curve, poor fit]",
CCOc1ccc2[nH]c(C(=O)N/N=C/c3cccc(OC)c3OC)cc2c1,"inconclusive: 20 µM [inhibitor, partial curve, poor fit]",
O=C(O)CSC1=NS(=O)(=O)c2ccccc21,"inconclusive: 56.2 µM [inhibitor, partial curve, poor fit]",
COc1ccc(CNc2cc(C)nc3ccc(OC)cc23)cc1,"inconclusive: 89.1 µM [inhibitor, partial curve, poor fit]",
CCCn1c(SCC(=O)Nc2ccccc2N2CCCCC2)nc2c1c(=O)n(C)c(=O)n2C,"inconclusive: 35.5 µM [inhibitor, partial curve, poor fit]",
COc1ccccc1CNS(=O)(=O)c1ccc(-c2cnc(C3CC3)o2)cc1,"inconclusive: 31.6 µM [inhibitor, partial curve, poor fit]",
O=C1OCCN1C(=O)[C@H]1[C@H](c2ccc([N+](=O)[O-])cc2)C(c2cccc(Cl)c2)=NN1c1ccc(Br)cc1,"inconclusive: 89.1 µM [inhibitor, partial curve, poor fit]",

# Reference: PubChem BioAssay AID588795 (National Center for Advancing Translational Sciences (NCATS), 2011)
